Reference: US12703706B2, “Anthelmintic compounds comprising a thienopyridine structure” (Intervet Inc., priority 2020, dated 2026)

Molecular target: Caenorhabditis elegans slo-1a (Caenorhabditis elegans, UniProt Q95V25)
Assay: Agonistic activity at C. elegans Slo-1a, FLIPR membrane potential in CHO K1 cells
Conditions: EC50 value, CHO K1 cells stably transfected
Excerpt: In Vitro Assay: Agonistic Activity at C. elegans Slo-1a
A CHO K1 cell line stably transfected with the Caenorhabditis elegans slo-1a (accession no Y51A2D.19a) was established.
The complete measurement takes 150 s.

Sequence of UniProt Q95V25 (Q95V25 whole entry): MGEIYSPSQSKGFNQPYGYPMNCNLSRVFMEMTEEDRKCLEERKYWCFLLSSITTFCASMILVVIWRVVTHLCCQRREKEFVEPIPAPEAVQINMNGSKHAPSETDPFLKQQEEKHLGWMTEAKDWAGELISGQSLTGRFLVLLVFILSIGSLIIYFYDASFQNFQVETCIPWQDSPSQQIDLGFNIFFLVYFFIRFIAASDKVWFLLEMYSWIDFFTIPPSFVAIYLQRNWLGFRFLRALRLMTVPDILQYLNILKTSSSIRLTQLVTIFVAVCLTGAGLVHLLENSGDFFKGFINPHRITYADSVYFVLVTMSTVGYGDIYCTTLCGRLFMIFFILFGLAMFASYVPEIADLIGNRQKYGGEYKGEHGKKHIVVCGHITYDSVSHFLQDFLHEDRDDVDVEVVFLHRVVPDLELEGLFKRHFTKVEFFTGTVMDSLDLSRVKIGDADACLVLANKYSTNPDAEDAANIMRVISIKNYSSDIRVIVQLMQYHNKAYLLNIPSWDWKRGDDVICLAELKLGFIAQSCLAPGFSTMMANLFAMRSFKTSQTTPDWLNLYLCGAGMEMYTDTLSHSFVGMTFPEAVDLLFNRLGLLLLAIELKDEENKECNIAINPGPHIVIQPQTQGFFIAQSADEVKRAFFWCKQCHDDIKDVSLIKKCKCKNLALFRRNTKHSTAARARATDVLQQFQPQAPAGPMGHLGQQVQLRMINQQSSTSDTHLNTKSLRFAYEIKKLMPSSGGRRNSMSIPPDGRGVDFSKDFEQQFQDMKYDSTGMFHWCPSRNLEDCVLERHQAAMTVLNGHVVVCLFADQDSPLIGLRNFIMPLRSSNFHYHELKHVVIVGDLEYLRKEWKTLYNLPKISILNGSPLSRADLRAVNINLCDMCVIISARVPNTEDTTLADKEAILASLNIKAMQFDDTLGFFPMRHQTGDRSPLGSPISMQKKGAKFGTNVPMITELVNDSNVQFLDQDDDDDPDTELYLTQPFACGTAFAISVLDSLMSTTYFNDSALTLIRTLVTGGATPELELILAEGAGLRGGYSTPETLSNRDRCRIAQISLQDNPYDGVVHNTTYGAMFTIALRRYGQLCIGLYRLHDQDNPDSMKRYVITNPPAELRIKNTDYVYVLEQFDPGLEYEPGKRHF

Row | Structure (SMILES) | EC50
1 | O=C(N[C@H]1CCOc2ccccc21)c1cnc2c(-c3cc(Cl)cc(Cl)c3)csc2c1N1CCOCC1 [Compound 1] | < 1 µM
2 | C[C@H](NC(=O)c1cnc2c(-c3cc(Cl)cc(Cl)c3)csc2c1N1CCOCC1)c1ccccc1 [Compound 2] | < 10 µM
3 | O=C(N[C@H]1CCc2ccccc21)c1cnc2c(-c3cc(Cl)cc(Cl)c3)csc2c1N1CCOCC1 [Compound 3] | < 1 µM
4 | O=C(N[C@H]1CCOc2ccccc21)c1cnc2c(-c3cccc(Cl)c3Cl)csc2c1N1CCOCC1 [Compound 4, (S)—N-(chroman-4-yl)-3-(2,3-dichlorophenyl)-7-morpholinothieno[3,2-b]pyridine-6-carboxamide] | < 1 µM
5 | CN(C)c1c(C(=O)N[C@H]2CCOc3ccccc32)cnc2c(-c3cc(Cl)cc(Cl)c3)csc12 [Compound 7] | < 1 µM
6 | C[C@H](NC(=O)c1cnc2c(-c3cc(Cl)cc(Cl)c3)csc2c1N(C)C)c1ccccc1 [Compound 8] | < 10 µM
7 | CN(C)c1c(C(=O)N[C@H]2CCc3ccccc32)cnc2c(-c3cc(Cl)cc(Cl)c3)csc12 [Compound 9] | < 1 µM
8 | CN(C)c1c(C(=O)N[C@H]2CCOc3ccccc32)cnc2c(-c3cccc(Cl)c3Cl)csc12 [Compound 10] | < 1 µM
9 | CN(C)c1c(C(=O)N[C@H]2CCc3ccccc32)cnc2c(-c3cccc(Cl)c3Cl)csc12 [Compound 12] | < 1 µM
10 | O=C(N[C@H]1CCOc2ccccc21)c1cnc2c(-c3cc(F)cc(F)c3F)csc2c1N1CCOCC1 [Compound 15] | < 10 µM
11 | CN(C)c1c(C(=O)N[C@H]2CCCc3ccccc32)cnc2c(-c3cccc(Cl)c3Cl)csc12 [Compound 21] | < 1 µM
12 | CN(C)c1c(C(=O)N[C@H]2CCOc3ccccc32)cnc2c(-c3cc(F)cc(F)c3F)csc12 [Compound 23] | < 1 µM
13 | O=C(N[C@H]1CCOc2ccccc21)c1cnc2c(-c3cccc(F)c3F)csc2c1N1CCOCC1 [Compound 24] | < 1 µM
14 | O=C(N[C@H]1CCOc2ccccc21)c1cnc2c(-c3cccc(Cl)c3Cl)csc2c1N1CC(F)(F)C1 [Compound 26] | < 1 µM
15 | O=C(NC1CCOc2ccccc21)c1cnc2c(-c3cccc(Cl)c3Cl)csc2c1N1CC(F)(F)C1 (centres unmarked) [Compound 27] | < 1 µM
16 | CN(C)c1c(C(=O)NC2CCOc3ccccc32)cnc2c(-c3cccc(Cl)c3Cl)csc12 (centres unmarked) [Compound 28] | < 1 µM
17 | CN(C)c1c(C(=O)N[C@H]2CCCc3ccccc32)cnc2c(-c3cc(Cl)cc(Cl)c3)csc12 [Compound 31] | < 1 µM
18 | O=C(N[C@H]1CCCc2ccccc21)c1cnc2c(-c3cc(Cl)cc(Cl)c3)csc2c1N1CCOCC1 [Compound 32] | < 1 µM
19 | Cc1sc2c(N(C)C)c(C(=O)N[C@H]3CCc4ccccc43)cnc2c1-c1cc(Cl)cc(Cl)c1 [Compound 33] | < 1 µM
20 | Cc1sc2c(N(C)C)c(C(=O)N[C@H]3CCc4ccccc43)cnc2c1-c1cccc(Cl)c1Cl [Compound 34] | < 1 µM
21 | Cc1sc2c(N(C)C)c(C(=O)N[C@H]3CCOc4ccccc43)cnc2c1-c1cccc(Cl)c1Cl [Compound 36, (S)—N-(chroman-4-yl)-3-(2,3-dichlorophenyl)-7-dimethylamino-2-methylthieno[3,2-b]pyridine-6-carboxamide] | < 1 µM
22 | O=C(N[C@H]1CCc2ccccc21)c1cnc2c(-c3cccc(Cl)c3Cl)csc2c1N1CC(F)(F)C1 [Compound 39] | < 1 µM
23 | O=C(N[C@H]1CCc2ccccc21)c1cnc2c(-c3cc(F)cc(F)c3F)csc2c1N1CC(F)(F)C1 [Compound 41] | < 10 µM
24 | CN(C)c1c(C(=O)N[C@H]2CCOc3ccccc32)cnc2c(-c3cccc(F)c3F)csc12 [Compound 46] | < 1 µM
25 | CN(C)c1c(C(=O)N[C@H]2CCOc3ccccc32)cnc2c(-c3cc(F)cc(F)c3)csc12 [Compound 51] | < 10 µM

Row | Structure (SMILES) | EC50
26 | Cc1sc2c(N(C)C)c(C(=O)N[C@H]3CCOc4ccccc43)cnc2c1-c1cc(Cl)cc(Cl)c1 [Compound 53] | < 1 µM
27 | Cc1sc2c(N3CC(F)(F)C3)c(C(=O)N[C@H]3CCCc4ccccc43)cnc2c1-c1cccc(Cl)c1Cl [Compound 55] | < 1 µM
28 | Cc1sc2c(N3CC(F)(F)C3)c(C(=O)N[C@H]3CCOc4ccccc43)cnc2c1-c1cccc(Cl)c1Cl [Compound 56] | < 1 µM
29 | Cc1sc2c(N3CC(F)(F)C3)c(C(=O)N[C@H]3CCc4ccccc43)cnc2c1-c1cccc(Cl)c1Cl [Compound 57] | < 1 µM
30 | Cc1sc2c(N3CC(F)(F)C3)c(C(=O)N[C@H]3CCCc4ccccc43)cnc2c1-c1cc(Cl)cc(Cl)c1 [Compound 58] | < 1 µM
31 | Cc1sc2c(N3CC(F)(F)C3)c(C(=O)N[C@H]3CCOc4ccccc43)cnc2c1-c1cc(Cl)cc(Cl)c1 [Compound 59] | < 1 µM
32 | Cc1sc2c(N3CC(F)C3)c(C(=O)N[C@H]3CCOc4ccccc43)cnc2c1-c1cccc(Cl)c1Cl [Compound 62] | < 1 µM
33 | Cc1sc2c(N3CC(F)C3)c(C(=O)N[C@H]3CCc4ccccc43)cnc2c1-c1cccc(Cl)c1Cl [Compound 63] | < 1 µM
34 | Cc1sc2c(N3CC(F)C3)c(C(=O)N[C@H]3CCOc4ccccc43)cnc2c1-c1cc(Cl)cc(Cl)c1 [Compound 65] | < 1 µM
35 | Cc1sc2c(N3CC(F)C3)c(C(=O)N[C@H]3CCc4ccccc43)cnc2c1-c1cc(Cl)cc(Cl)c1 [Compound 66] | < 1 µM
36 | Cc1sc2c(N3CCOCC3)c(C(=O)N[C@H]3CCCc4ccccc43)cnc2c1-c1cc(Cl)cc(Cl)c1 [Compound 67] | < 1 µM
37 | Cc1sc2c(N3CCOCC3)c(C(=O)N[C@H]3CCOc4ccccc43)cnc2c1-c1cc(Cl)cc(Cl)c1 [Compound 68] | < 1 µM
38 | Cc1sc2c(N3CCOCC3)c(C(=O)N[C@H]3CCCc4ccccc43)cnc2c1-c1cccc(Cl)c1Cl [Compound 71] | < 1 µM
39 | Cc1sc2c(N3CCOCC3)c(C(=O)N[C@H]3CCOc4ccccc43)cnc2c1-c1cccc(Cl)c1Cl [Compound 72] | < 1 µM
40 | Cc1sc2c(N3CCOCC3)c(C(=O)N[C@H]3CCc4ccccc43)cnc2c1-c1cccc(Cl)c1Cl [Compound 73] | < 1 µM
41 | Cc1sc2c(N3CCOCC3)c(C(=O)Nc3cccc4ccccc34)cnc2c1-c1cccc(Cl)c1Cl [Compound 74] | < 10 µM
42 | Cc1cccc(-c2csc3c(N(C)C)c(C(=O)N[C@H]4CCOc5ccccc54)cnc23)c1C [Compound 75] | < 1 µM
43 | O=C(N[C@H]1CCOc2ccccc21)c1cnc2c(-c3cccc(F)c3F)csc2c1N1CCC1 [Compound 85] | < 1 µM
44 | O=C(N[C@H]1CCOc2ccccc21)c1cnc2c(-c3cccc(C(F)(F)F)c3)csc2c1N1CCC1 [Compound 90] | < 10 µM
45 | O=C(N[C@H]1CCOc2ccccc21)c1cnc2c(-c3cccc(F)c3F)csc2c1N1CC(F)C1 [Compound 91] | < 1 µM
46 | O=C(N[C@H]1CCOc2ccccc21)c1cnc2c(-c3cc(F)cc(F)c3)csc2c1N1CC(F)C1 [Compound 92] | < 10 µM
47 | O=C(N[C@H]1CCOc2ccccc21)c1cnc2c(-c3cccc(C(F)(F)F)c3)csc2c1N1CC(F)C1 [Compound 93] | < 10 µM
48 | CN(C)c1c(C(=O)NC2COc3ccccc32)cnc2c(-c3cc(Cl)cc(Cl)c3)csc12 (centres unmarked) [Compound 96] | < 10 µM
49 | O=C(N[C@H]1CCc2ccccc21)c1cnc2c(-c3cccc(Cl)c3Cl)csc2c1N1CC(F)C1 [Compound 99] | < 1 µM
50 | Cc1sc2c(N(C)C)c(C(=O)N[C@H]3CCOc4ccccc43)cnc2c1-c1cc(F)cc(F)c1F [Compound 102] | < 1 µM
